The campaign covered roughly 110,000 compounds. About 230 (0.21%) showed an effect of 50% or more. This is one part of the list.
These compounds were tested against DPAP1 (Plasmodium falciparum, UniProt Q8IIJ9) (assay: primary screen, percent inhibition; read by cleavage of a fluorogenic dipeptide substrate; higher = more effect of the substance).
Parameters: species or system P. falciparum D10 trophozoite lysates; single well
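Further: 30 min substrate incubation versus DMSO and 10 µM JCP410 controls.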

Chain of DPAP1 (Q8IIJ9 whole entry, looked up): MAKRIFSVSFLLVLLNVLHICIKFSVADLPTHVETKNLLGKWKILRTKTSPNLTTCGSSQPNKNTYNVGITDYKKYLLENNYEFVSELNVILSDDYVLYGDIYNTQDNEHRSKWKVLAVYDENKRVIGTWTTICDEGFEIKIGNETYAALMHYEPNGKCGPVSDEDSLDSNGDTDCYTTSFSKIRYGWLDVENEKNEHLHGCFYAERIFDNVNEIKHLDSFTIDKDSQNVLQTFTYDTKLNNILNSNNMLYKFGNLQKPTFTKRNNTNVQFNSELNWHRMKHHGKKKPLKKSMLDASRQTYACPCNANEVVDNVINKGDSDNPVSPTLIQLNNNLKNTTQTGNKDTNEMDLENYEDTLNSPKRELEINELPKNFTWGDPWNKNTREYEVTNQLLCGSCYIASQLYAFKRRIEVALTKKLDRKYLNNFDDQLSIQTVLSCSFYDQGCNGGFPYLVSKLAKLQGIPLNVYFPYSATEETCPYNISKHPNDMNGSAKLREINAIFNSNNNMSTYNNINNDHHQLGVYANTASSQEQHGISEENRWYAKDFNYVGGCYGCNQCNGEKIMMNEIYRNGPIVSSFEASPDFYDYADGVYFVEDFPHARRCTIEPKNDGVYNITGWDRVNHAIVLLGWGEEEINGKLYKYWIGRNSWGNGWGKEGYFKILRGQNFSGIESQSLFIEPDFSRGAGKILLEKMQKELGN

Question: Which “% Inhibition @ 10 uM” value does the source give for `Cc1oc2ncnc(N3CCOCC3)c2c1C(=O)N(CCC(C)C)Cc1ccco1` here?
Answer: Its value is 13.4%.

Question: With `CCC1OCC2(COC(C)=O)C(C)C=C(C)C1C2C` (stereo not shown) as the compound, how does the “% Inhibition @ 10 uM” value read?
Answer: The value was 2%.

Question: `CCCCc1nnc2sc(NC(=O)c3cccs3)nn12` was tested. Which “% Inhibition @ 10 uM” value did it give?
Answer: The value was 0.00665%.

Question: With `CC1=C(c2ccc(Cl)cc2)S(=O)(=O)N=C1N1CCC(C(=O)NC2CCCC2)CC1` as the compound, how does the “% Inhibition @ 10 uM” value read?
Answer: The value was 3.16%.

Question: For `N#Cc1cn(CCCOc2ccccc2)c2ccccc12`, which “% Inhibition @ 10 uM” value is on record?
Answer: Its value is -4.49%.

Question: How did the “% Inhibition @ 10 uM” value turn out when `CCCCn1c(Oc2ccccc2Cl)nc2c1c(=O)n(C)c(=O)n2C` was run?
Answer: The value was 6.89%.

Question: For `Cc1cccc(OCC(=O)Nc2ccc3ccccc3c2)c1`, which “% Inhibition @ 10 uM” value is on record?
Answer: Its value is 0.467%.

Question: `COc1ccc(CCNC(=O)CSc2nc(C)cc(C)n2)cc1OC` was tested. Which “% Inhibition @ 10 uM” value did it give?
Answer: Its value is 1.59%.

Question: For `CCC(C(=O)NCc1ccncc1)c1ccccc1` (stereo not shown), which “% Inhibition @ 10 uM” value is on record?
Answer: Its value is 5%.

Question: With `OC1CCN(Cc2c(F)cccc2F)CC1` as the compound, how does the “% Inhibition @ 10 uM” value read?
Answer: The value was 0.273%.

Question: How did the “% Inhibition @ 10 uM” value turn out when `Cc1ccc(S(=O)(=O)N2CCN(C(=O)COc3ccccc3)C2c2ccccc2)cc1` (stereo not shown) was run?
Answer: Its value is -8.17%.

Question: How did the “% Inhibition @ 10 uM” value turn out when `O=C(O)c1ccc2c(c1)C(=O)N(c1ccccc1Cl)C2=O` was run?
Answer: The value was -1.95%.

Question: Which “% Inhibition @ 10 uM” value does the source give for `CCS(=O)(=O)n1nc(-c2ccc(OC)cc2)nc1SC` here?
Answer: Its value is -0.958%.

Question: For `c1ccc(-c2noc(-c3ccc4ccccc4c3)n2)cc1`, which “% Inhibition @ 10 uM” value is on record?
Answer: The value was -1.99%.

Question: For `N#CC1=C(N)Oc2[nH]nc(-c3ccc(Cl)c(Cl)c3)c2C1c1ccc(O)c(O)c1` (stereo not shown), which “% Inhibition @ 10 uM” value is on record?
Answer: The value was 4.09%.

Question: For `CC1(C)CC2=Nc3ccccc3NC(c3ccc4c(c3)OCO4)C2=C(O)C1` (stereo not shown), which “% Inhibition @ 10 uM” value is on record?
Answer: Its value is -4.58%.

Question: For `Cc1[nH]c2ccccc2c1C(=O)/C=C/c1c2ccccc2cc2ccccc12`, which “% Inhibition @ 10 uM” value is on record?
Answer: Its value is -1.86%.

Question: For `O=C(NC1CCCC1)C1CC1c1ccccc1` (stereo not shown), which “% Inhibition @ 10 uM” value is on record?
Answer: Its value is 1.26%.

Question: For `COc1ccc(CCNS(=O)(=O)c2cc(F)ccc2CN2C(=O)c3cccnc3C2=O)cc1OC`, which “% Inhibition @ 10 uM” value is on record?
Answer: The value was -4.05%.

Question: Which “% Inhibition @ 10 uM” value does the source give for `CN(C)c1ccc(NC(=O)C(=O)NCc2ccccc2Cl)cc1` here?
Answer: Its value is -2.18%.

Question: `CSc1ncc(C(=O)NC(C)c2ccccc2)c(C)n1` (stereo not shown) was tested. Which “% Inhibition @ 10 uM” value did it give?
Answer: The value was -1.26%.

Question: With `O=C(CCc1nc2ncccc2c(=O)n1Cc1ccccc1Cl)N1CCN(C2CCCCC2)CC1` as the compound, how does the “% Inhibition @ 10 uM” value read?
Answer: Its value is 0.953%.

Question: Which “% Inhibition @ 10 uM” value does the source give for `COc1ccc(-c2cc(C(=O)NCC3CCCO3)c3cc(C)ccc3n2)cc1` (stereo not shown) here?
Answer: Its value is 5.17%.

Question: For `COC(=O)c1nnc(O)c2ccccc12`, which “% Inhibition @ 10 uM” value is on record?
Answer: Its value is 1.7%.

Question: `O=c1cccc2n1C[C@H]1C[C@@H]2CN(Cc2c(F)cccc2F)C1` was tested. Which “% Inhibition @ 10 uM” value did it give?
Answer: Its value is -1.85%.

Question: How did the “% Inhibition @ 10 uM” value turn out when `CCOC(=O)CC1=CC(C)(CC(=O)OCC)C(C#N)(C#N)C(N)=C1C#N` (stereo not shown) was run?
Answer: Its value is -0.215%.

Question: How did the “% Inhibition @ 10 uM” value turn out when `Cc1ccc(C)c(Cn2cnc3c(cnn3-c3ccc(Cl)cc3)c2=O)c1` was run?
Answer: The value was -1.75%.

Question: For `Cc1ccc(-c2nc(CS(=O)(=O)CC(=O)NCCCN3CCN(C)CC3)c(C)o2)cc1`, which “% Inhibition @ 10 uM” value is on record?
Answer: The value was -3.7%.

Question: How did the “% Inhibition @ 10 uM” value turn out when `O=C(CCc1nnc2n(CCc3ccccc3)c(=O)c3ccccc3n12)NCc1cccnc1` was run?
Answer: Its value is -2.42%.

Question: For `O=C1CC(N2C(=O)S/C(=C\c3ccc(F)cc3)C2=O)C(=O)N1c1ccccc1` (stereo not shown), which “% Inhibition @ 10 uM” value is on record?
Answer: The value was 4.44%.

Question: With `Cc1ccc(-c2nc3nc(C)cc(C)n3n2)cc1` as the compound, how does the “% Inhibition @ 10 uM” value read?
Answer: Its value is 4.18%.

Question: With `CCOc1ccccc1N1CCN(Cc2ccc([N+](=O)[O-])s2)CC1` as the compound, how does the “% Inhibition @ 10 uM” value read?
Answer: The value was -3.77%.

Question: `COc1cccc2c1Oc1ncccc1N(c1ccc(C(=O)N3CCOCC3)s1)C2` was tested. Which “% Inhibition @ 10 uM” value did it give?
Answer: Its value is 4.76%.

Question: `CC(=O)NC1=C(C#N)C(c2ccccc2)c2c(ccc3ccccc23)O1` (stereo not shown) was tested. Which “% Inhibition @ 10 uM” value did it give?
Answer: Its value is -2.45%.

Question: How did the “% Inhibition @ 10 uM” value turn out when `O=[N+]([O-])c1ccc(CN2CCN(c3ccccc3F)CC2)cc1` was run?
Answer: The value was 3.8%.

Question: How did the “% Inhibition @ 10 uM” value turn out when `O=C(CSc1nc2nccnc2c(=O)n1CCc1c[nH]c2ccccc12)NCC1CCCO1` (stereo not shown) was run?
Answer: Its value is 1.96%.

Question: Which “% Inhibition @ 10 uM” value does the source give for `O=C(Nc1c(C(=O)N2CCCCCC2)cnn1-c1ccccc1)c1ccccc1Cl` here?
Answer: Its value is 1.98%.

Question: With `NC(=O)C1CCCN(Cc2ccccc2Cl)C1` (stereo not shown) as the compound, how does the “% Inhibition @ 10 uM” value read?
Answer: Its value is 1.26%.

Question: How did the “% Inhibition @ 10 uM” value turn out when `CCCC1=C(C(=O)OCC)C(c2sccc2C)C(C#N)=C(N)O1` (stereo not shown) was run?
Answer: Its value is 3.8%.

Question: `C/C(=C\c1ccc(F)cc1)C(=O)c1c(C)cc(C)nc1O` was tested. Which “% Inhibition @ 10 uM” value did it give?
Answer: Its value is -2.48%.

Question: `Cc1c(Cl)cccc1-n1nc(C)c2c(C)cc(=O)n(CC(=O)NC(C)C)c21` was tested. Which “% Inhibition @ 10 uM” value did it give?
Answer: The value was 0.936%.

Question: `CCOC(=O)c1ccc2[nH]c3ccccc3c2c1` was tested. Which “% Inhibition @ 10 uM” value did it give?
Answer: Its value is -1.33%.

Question: With `COc1ccc(CCNC(=O)C2CCN(S(=O)(=O)c3ccc(OC)c(OC)c3)CC2)cc1OC` as the compound, how does the “% Inhibition @ 10 uM” value read?
Answer: The value was -11.3%.

Question: `CCCCCC(=O)NCC(=O)O` was tested. Which “% Inhibition @ 10 uM” value did it give?
Answer: The value was 3.25%.

Question: With `CCCCSC(=S)NC1CCS(=O)(=O)C1` (stereo not shown) as the compound, how does the “% Inhibition @ 10 uM” value read?
Answer: The value was 14.4%.

Question: Which “% Inhibition @ 10 uM” value does the source give for `COc1ccc2c(c1)OC1(C)CC2/C(=C(\C)O)C(=O)N1` (stereo not shown) here?
Answer: The value was 4.34%.

Question: How did the “% Inhibition @ 10 uM” value turn out when `COc1ccccc1/N=C1\SC(CC(=O)Nc2cccc(C)c2C)C(=O)N1C` (stereo not shown) was run?
Answer: The value was -2.03%.

Question: `N#CC1(NC(=O)[C@H](CC2CCCCC2)NC(c2cccs2)C(F)(F)F)CC1` (stereo partly shown) was tested. Which “% Inhibition @ 10 uM” value did it give?
Answer: The value was -4.82%.

Question: Which “% Inhibition @ 10 uM” value does the source give for `COc1cccc(-c2ccc(-c3noc(-c4ccccc4F)n3)c(OC)n2)c1` here?
Answer: The value was 3.73%.

Question: How did the “% Inhibition @ 10 uM” value turn out when `O=C(Cn1cc(S(=O)(=O)Cc2ccccc2)c2ccccc21)N1CCCC1` was run?
Answer: Its value is -0.826%.

Question: How did the “% Inhibition @ 10 uM” value turn out when `Cc1n[nH]c(C)c1Nc1nc(-c2ccccc2)cs1` was run?
Answer: Its value is -6.71%.

Question: `NC(=O)c1c(NC(=O)C2CC=CCC2C(=O)O)sc2c1CCCCC2` (stereo not shown) was tested. Which “% Inhibition @ 10 uM” value did it give?
Answer: The value was 22.2%.

— PMC6919601, “Identification of Plasmodium dipeptidyl aminopeptidase allosteric inhibitors by high throughput screening” (PLoS ONE, 2019)
